Laboratory results reported in PMC6136799, “The Npa1p complex chaperones the assembly of the earliest eukaryotic large ribosomal subunit precursor” (PLoS Genetics, 2018).
Results are given in words; binding and its absence hold for the method and conditions named. Tags and fused reporters may be left off the sequences shown.

T1: GST-Npa2p (S. cerevisiae, UniProt P47108 1-1174)
T1 construct: Npa2p, S. cerevisiae; NPA2 ORF inserted into XhoI-digested pGEX-6P1 (plasmid pRC58); source: E. coli Rosetta λDE3, purified (Glutathione Sepharose 4 FF)
T1 sequence (looked up): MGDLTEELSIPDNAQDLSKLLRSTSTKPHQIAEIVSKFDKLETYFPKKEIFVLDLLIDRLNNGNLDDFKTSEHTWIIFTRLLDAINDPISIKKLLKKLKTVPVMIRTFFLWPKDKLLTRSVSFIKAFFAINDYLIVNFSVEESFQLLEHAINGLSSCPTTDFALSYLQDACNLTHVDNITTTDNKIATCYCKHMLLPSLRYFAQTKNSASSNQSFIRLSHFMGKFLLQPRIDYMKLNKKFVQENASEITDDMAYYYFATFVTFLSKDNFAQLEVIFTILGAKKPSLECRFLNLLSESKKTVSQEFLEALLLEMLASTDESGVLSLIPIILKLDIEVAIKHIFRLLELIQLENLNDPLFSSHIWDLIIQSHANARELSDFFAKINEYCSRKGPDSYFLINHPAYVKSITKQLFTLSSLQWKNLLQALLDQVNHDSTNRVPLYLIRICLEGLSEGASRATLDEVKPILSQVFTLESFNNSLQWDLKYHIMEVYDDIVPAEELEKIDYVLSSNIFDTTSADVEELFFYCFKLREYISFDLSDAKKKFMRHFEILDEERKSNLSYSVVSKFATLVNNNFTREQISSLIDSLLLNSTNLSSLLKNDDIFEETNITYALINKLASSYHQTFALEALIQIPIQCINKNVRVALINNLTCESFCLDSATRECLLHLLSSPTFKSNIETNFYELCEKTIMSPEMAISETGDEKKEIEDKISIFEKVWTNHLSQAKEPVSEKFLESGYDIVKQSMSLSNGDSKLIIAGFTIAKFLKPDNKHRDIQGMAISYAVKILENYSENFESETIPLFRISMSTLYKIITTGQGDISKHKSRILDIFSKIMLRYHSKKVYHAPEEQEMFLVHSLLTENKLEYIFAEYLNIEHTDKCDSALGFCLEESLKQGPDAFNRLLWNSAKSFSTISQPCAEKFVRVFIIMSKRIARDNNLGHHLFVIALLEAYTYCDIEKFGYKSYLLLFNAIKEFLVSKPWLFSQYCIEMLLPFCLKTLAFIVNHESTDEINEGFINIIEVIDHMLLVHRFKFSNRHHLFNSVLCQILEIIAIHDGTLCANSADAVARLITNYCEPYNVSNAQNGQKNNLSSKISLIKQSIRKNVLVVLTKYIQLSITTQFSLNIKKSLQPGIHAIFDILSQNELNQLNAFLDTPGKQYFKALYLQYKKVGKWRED

T2: GST-Nop8p (S. cerevisiae) (UniProt Q08287)
T2 sequence: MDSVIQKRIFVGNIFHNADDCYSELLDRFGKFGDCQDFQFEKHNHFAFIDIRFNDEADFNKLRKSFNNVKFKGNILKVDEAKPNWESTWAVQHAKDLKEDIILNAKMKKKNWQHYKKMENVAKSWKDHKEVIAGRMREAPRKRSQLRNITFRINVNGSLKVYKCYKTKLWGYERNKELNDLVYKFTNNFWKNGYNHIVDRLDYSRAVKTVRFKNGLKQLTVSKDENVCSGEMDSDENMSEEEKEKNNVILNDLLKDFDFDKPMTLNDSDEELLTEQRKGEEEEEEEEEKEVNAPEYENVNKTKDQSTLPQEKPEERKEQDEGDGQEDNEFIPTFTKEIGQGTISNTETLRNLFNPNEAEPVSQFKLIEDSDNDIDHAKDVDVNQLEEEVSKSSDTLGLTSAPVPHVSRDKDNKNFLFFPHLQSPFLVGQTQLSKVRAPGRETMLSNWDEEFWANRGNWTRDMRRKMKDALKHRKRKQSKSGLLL

T3: GST-Npa1p (S. cerevisiae), P34241
T3 chain: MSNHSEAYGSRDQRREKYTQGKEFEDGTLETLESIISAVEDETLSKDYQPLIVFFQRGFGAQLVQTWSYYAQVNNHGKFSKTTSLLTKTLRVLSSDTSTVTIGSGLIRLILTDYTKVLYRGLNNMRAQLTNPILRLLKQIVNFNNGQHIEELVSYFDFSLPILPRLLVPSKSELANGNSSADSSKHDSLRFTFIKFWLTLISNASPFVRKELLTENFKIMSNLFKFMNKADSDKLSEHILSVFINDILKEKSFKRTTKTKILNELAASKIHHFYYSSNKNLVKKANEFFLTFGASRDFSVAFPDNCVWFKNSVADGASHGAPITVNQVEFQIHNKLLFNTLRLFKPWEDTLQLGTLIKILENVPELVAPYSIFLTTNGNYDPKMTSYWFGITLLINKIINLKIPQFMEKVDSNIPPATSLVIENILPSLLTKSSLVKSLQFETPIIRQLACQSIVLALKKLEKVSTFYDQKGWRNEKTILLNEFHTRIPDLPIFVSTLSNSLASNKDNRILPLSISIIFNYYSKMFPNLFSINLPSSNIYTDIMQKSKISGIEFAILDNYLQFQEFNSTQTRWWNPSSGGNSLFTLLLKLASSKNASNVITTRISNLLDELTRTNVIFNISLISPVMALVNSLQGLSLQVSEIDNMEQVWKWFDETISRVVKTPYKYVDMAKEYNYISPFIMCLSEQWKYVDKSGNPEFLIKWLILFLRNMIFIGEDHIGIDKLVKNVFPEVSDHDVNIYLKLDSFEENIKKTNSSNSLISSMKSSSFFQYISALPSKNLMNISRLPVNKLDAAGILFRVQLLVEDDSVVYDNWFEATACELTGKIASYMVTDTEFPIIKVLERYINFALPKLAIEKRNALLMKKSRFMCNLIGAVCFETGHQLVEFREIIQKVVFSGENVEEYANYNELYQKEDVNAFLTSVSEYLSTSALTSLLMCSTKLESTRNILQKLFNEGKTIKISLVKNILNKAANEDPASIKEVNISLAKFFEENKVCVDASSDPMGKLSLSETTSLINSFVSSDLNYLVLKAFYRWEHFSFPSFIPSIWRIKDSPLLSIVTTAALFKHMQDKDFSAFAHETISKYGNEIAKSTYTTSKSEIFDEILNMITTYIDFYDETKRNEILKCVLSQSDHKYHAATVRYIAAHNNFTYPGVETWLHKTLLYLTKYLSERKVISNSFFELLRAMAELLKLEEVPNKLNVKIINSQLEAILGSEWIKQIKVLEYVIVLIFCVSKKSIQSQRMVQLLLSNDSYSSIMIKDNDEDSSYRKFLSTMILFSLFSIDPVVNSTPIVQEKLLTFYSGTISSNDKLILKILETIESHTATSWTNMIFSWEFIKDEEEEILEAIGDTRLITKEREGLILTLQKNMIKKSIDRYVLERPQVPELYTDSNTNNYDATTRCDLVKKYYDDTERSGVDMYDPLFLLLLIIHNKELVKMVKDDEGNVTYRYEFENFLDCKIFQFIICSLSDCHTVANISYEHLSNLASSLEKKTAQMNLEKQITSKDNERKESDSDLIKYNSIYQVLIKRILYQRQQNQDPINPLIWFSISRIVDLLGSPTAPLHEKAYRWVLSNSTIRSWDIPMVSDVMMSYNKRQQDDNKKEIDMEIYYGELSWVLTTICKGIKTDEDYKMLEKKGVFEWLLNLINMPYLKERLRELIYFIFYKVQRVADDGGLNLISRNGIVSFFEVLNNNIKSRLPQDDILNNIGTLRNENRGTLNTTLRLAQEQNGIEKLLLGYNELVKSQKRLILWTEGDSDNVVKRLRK


What was measured:
Test in all cases: co-IP; purified GST-tagged versions of the complex proteins tested in pairs by immunoprecipitation with specific antibodies; conditions not given; both purified
[1] = molecular target: T1, GST-Npa2p
[2] = molecular target: T2, GST-Nop8p (S. cerevisiae)
[3] = molecular target: T3, GST-Npa1p (S. cerevisiae), P34241; conditions: remark: other sources report otherwise

| binding [1] | binding [2] | binding [3] | Binder |
| --- | --- | --- | --- |
| no binding | no binding | – | GST-Rsa3p (protein, UniProt Q05942 1-220) MSAGDISAINIKSVKKNRRRKKRRTADVSSSDSSSSDPSSESEKEEIQNGAIEEHVGENGKSDHVFSKGNDEDKQEDIAIEVSDVELTDEESKDLKLNSKEVIDDLTKISLSKIPEPTKSQNKEGFMNASKIAENIKLAREEYNELAENFVPKGKDKTKLREEYLNLLFENYGDDINRLRAAPDFTNKSLSILADALQEGIGMFDIGELELVLKNKEMEN |
| – | – | no binding | GST-Npa2p, P47108 1-1174 (protein) MGDLTEELSIPDNAQDLSKLLRSTSTKPHQIAEIVSKFDKLETYFPKKEIFVLDLLIDRLNNGNLDDFKTSEHTWIIFTRLLDAINDPISIKKLLKKLKTVPVMIRTFFLWPKDKLLTRSVSFIKAFFAINDYLIVNFSVEESFQLLEHAINGLSSCPTTDFALSYLQDACNLTHVDNITTTDNKIATCYCKHMLLPSLRYFAQTKNSASSNQSFIRLSHFMGKFLLQPRIDYMKLNKKFVQENASEITDDMAYYYFATFVTFLSKDNFAQLEVIFTILGAKKPSLECRFLNLLSESKKTVSQEFLEALLLEMLASTDESGVLSLIPIILKLDIEVAIKHIFRLLELIQLENLNDPLFSSHIWDLIIQSHANARELSDFFAKINEYCSRKGPDSYFLINHPAYVKSITKQLFTLSSLQWKNLLQALLDQVNHDSTNRVPLYLIRICLEGLSEGASRATLDEVKPILSQVFTLESFNNSLQWDLKYHIMEVYDDIVPAEELEKIDYVLSSNIFDTTSADVEELFFYCFKLREYISFDLSDAKKKFMRHFEILDEERKSNLSYSVVSKFATLVNNNFTREQISSLIDSLLLNSTNLSSLLKNDDIFEETNITYALINKLASSYHQTFALEALIQIPIQCINKNVRVALINNLTCESFCLDSATRECLLHLLSSPTFKSNIETNFYELCEKTIMSPEMAISETGDEKKEIEDKISIFEKVWTNHLSQAKEPVSEKFLESGYDIVKQSMSLSNGDSKLIIAGFTIAKFLKPDNKHRDIQGMAISYAVKILENYSENFESETIPLFRISMSTLYKIITTGQGDISKHKSRILDIFSKIMLRYHSKKVYHAPEEQEMFLVHSLLTENKLEYIFAEYLNIEHTDKCDSALGFCLEESLKQGPDAFNRLLWNSAKSFSTISQPCAEKFVRVFIIMSKRIARDNNLGHHLFVIALLEAYTYCDIEKFGYKSYLLLFNAIKEFLVSKPWLFSQYCIEMLLPFCLKTLAFIVNHESTDEINEGFINIIEVIDHMLLVHRFKFSNRHHLFNSVLCQILEIIAIHDGTLCANSADAVARLITNYCEPYNVSNAQNGQKNNLSSKISLIKQSIRKNVLVVLTKYIQLSITTQFSLNIKKSLQPGIHAIFDILSQNELNQLNAFLDTPGKQYFKALYLQYKKVGKWRED |
